Measured values published in PubChem BioAssay AID1508623 (National Center for Advancing Translational Sciences (NCATS), 2021).
Screen size: about 48,000 compounds; about 450 (0.94%) were called active. About 19% were inconclusive and are not listed. Calls follow the shape of the dose curve; as a rule, active = well fitted inhibition curve with a large enough effect; inconclusive = small, poorly fitted or top-dose-only effect; inactive = no such curve, though single readings can be large or run the other way. This is one part of the list.

assay: Primary qHTS for Identification of Small Molecule Inhibitors of Huntingtin Promoter Activity; details: HEK293 HTT promoter firefly luciferase reporter (activity 0% = vehicle and -100% = no light), 24 h; series mostly up to 57.5 µM; activity change, negative = inhibition: at the top concentration; also: nearly all actives have a fitted effect of over 50% in size
In short: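 Luminescence was read after Dual-Glo reagent and a 10 min room-temperature incubation. Values were normalized to vehicle (0% activity) and zero RLU (-100% activity). Reporter HEK293 cells had been exposed to compounds (up to 57.5 uM final) for 24 h.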

Activity change, negative = inhibition, inactive:
COc1cc2c(cc1OC)C(COc1ccccc1OC)N(C(=O)c1ccccc1OC)CC2 (stereo unspecified) -24.8%
Cc1cc(C)c(NC(=O)Cn2c(=O)n(Cc3ccccc3)c(=O)c3c(C)c(C(=O)N(C)C)sc32)c(C)c1 -22.6%
COc1cc2c(=O)c(S(=O)(=O)c3ccccc3)cn(CC(=O)Nc3ccccc3C)c2cc1OC -14.8%
COc1cc(OC)c(NC(=O)c2c3c(nc4ccccc24)C(=O)N(C2CCCCC2)C3)cc1Cl -28.3%
CCOc1ccccc1NC(=O)CN1CCN(S(=O)(=O)c2ccc(Br)cc2)CC1 -13.4%
CCC1CCCCN1Cc1cn2c(-c3ccc(Br)cc3)nnc2s1 (stereo unspecified) 5.37%
CCS(=O)(=O)N1CCc2cc(C(=O)Nc3ccc(OC)cc3OC)ccc21 -11.9%
CC(=O)c1cccc(NC(=O)c2nc(-c3ccccc3)n(-c3cccc(C)c3)n2)c1 6.82%
COc1c(Cl)cc(Cl)cc1CNCCSc1nnnn1C -8.16%
CCC(C)NC(=O)CSc1nc2cc3c(cc2c(=O)n1CCCCCC(=O)NCc1ccc(OC)cc1)OCO3 (stereo unspecified) -10.9%
CCOc1ccc(C(=O)N2CCN(Cc3cc(=O)n4nc(-c5cccc(OC)c5)sc4n3)CC2)cc1 -12.3%
CCOCCCNC(=O)C(c1ccc(Cl)cc1)N(Cc1ccc2c(c1)OCO2)C(=O)c1ccccc1O (stereo unspecified) -27.1%
COc1ccc(-c2nc(S(=O)(=O)c3ccccc3)c(N3CCCCC3)o2)cc1 -1.91%
CCN(Cc1nc(-c2ccc(OC)cc2)oc1C)S(=O)(=O)c1ccc(Cl)cc1 1.52%
COc1ccc(N2CCN(C(=O)c3cccn4c(=O)c5ccc(Cl)cc5nc34)CC2)cc1 -0.663%
Cc1ccccc1CNCCCSc1nnnn1-c1ccccc1 1.33%
Cc1ccc2oc(=O)c3cnn(CC(=O)Nc4ccc(Br)cc4C)c3c2c1 1.85%
CCc1ccccc1NC(=O)C(=O)c1cc(C)n(-c2ccccc2F)c1C -6.74%
O=C(c1ccco1)N(Cc1cccnc1)c1nc2c(F)cccc2s1 -32.8%
Cc1ccc(NCc2nc3ccccc3n2CCOc2ccccc2C)cc1 -24.9%
COc1cc(OC)cc(-c2nc3nc(C)c(CCC(=O)Nc4ccc(C)cc4)c(C)n3n2)c1 3.59%
CCNc1nc2c(c(=O)n(C)c(=O)n2C)n1CC(O)COc1ccccc1 (stereo unspecified) -21.9%
COC(=O)c1cc(NC(=O)c2cnc(SC)nc2-c2ccccc2)cc(C(=O)OC)c1 -16.5%
Cc1cc2c(cc1S(=O)(=O)CCC(=O)Nc1ccc(OC(F)(F)F)cc1)OCC(=O)N2 -10.3%
COc1ccc(NC(=O)Nc2cccc(C)n2)c(OC)c1 40%
Cc1c2cnn(CC(=O)O)c(=O)c2c(C)n1Cc1cccc(Cl)c1 -13.6%
O=C(CC1N=C2c3ccccc3N=C(SCc3ccc(Cl)cc3)N2C1=O)NC1CCCCC1 (stereo unspecified) 0.982%
Cc1ccc(CNC(=O)COCc2cc(-c3ccc4c(c3)OCO4)on2)cc1 -20.2%
CCOc1ccc(S(=O)(=O)c2cn(Cc3ccc(C)cc3)c3ccc(OC)cc3c2=O)cc1 -32.4%
CCOc1ccc2cc(-c3nnc(Nc4ccccc4F)s3)c(=O)oc2c1 29%
Cc1ccc(-c2cnc(NCc3ccc(C(C)C)cc3)n2C)cc1 -16.1%
O=C(NCc1cccc(Br)c1)c1ccc(-n2cnc3cccnc32)cc1 -19.4%
Cc1ccc(Cl)cc1N1CCN(C(=O)c2cn(C)c3ccc(S(=O)(=O)N4CCC(C)CC4)cc3c2=O)CC1 48.5% [at 11.5 µM]
O=C(NCC(c1ccc(Cl)cc1)N1CCCCC1)c1ccccc1 (stereo unspecified) -11%
CCCOc1ccc(C(=O)N(Cc2cccs2)C2CCS(=O)(=O)C2)cc1 (stereo unspecified) -25.6%
CCOc1cccc(C2c3[nH]c4ccccc4c3CCN2C(=O)CCc2ccccc2)c1 (stereo unspecified) -24.6%
CCOC(=O)c1nc(Nc2ccccc2C)c2ccccc2n1 -26.4%
O=C(NCc1noc2ccccc12)Nc1ccc(F)cc1F -5.68%
CCN(CC)S(=O)(=O)c1ccc2nc(NC(=O)c3ccc(Br)o3)sc2c1 15.1%
O=C(Nc1nc2ccc(Cl)cc2s1)c1ccc(S(=O)(=O)N2CCCC2)cc1 1.64%
COc1ccc(C)cc1NC(=O)CN1C(=O)COc2ccc(S(=O)(=O)N3CCCCCC3)cc21 -9.08%
CC1CC2C3CCC4=CC(=O)C=C[C@]4(C)[C@@]3(F)[C@@H](O)C[C@]2(C)[C@@]1(O)C(=O)CO (stereo partly specified) -6.94%
CC(C)c1ccc(NC(=O)CN2C(=O)c3cccc4cccc2c34)cc1 -1.01%
CCCN(CCC)S(=O)(=O)c1ccc(C(=O)O)cc1 1.59%
CCc1ccc(S(=O)(=O)c2cn(C)c3cc(OC)c(OC)cc3c2=O)cc1 -19.3%
CCOc1ccccc1CNC(=O)CSc1n[nH]c(-c2ccccc2Cl)n1 -19.4%
COc1ccc(CNC(=O)Cc2coc3ccc(C(C)C)cc23)cc1 -33.6%
O=C(CN1C(=O)COc2ccc(S(=O)(=O)N3CCCCC3)cc21)NCc1ccccc1Cl -13.7%
Cc1cc(Nc2cc(Cl)ccc2C)n2nc(Cc3ccccc3)nc2n1 -10.6%
Cc1ccc(C)c(CN2C(=O)c3ccccc3S(=O)(=O)c3ccc(C(=O)N4CCN(C)CC4)cc32)c1 -19%
COc1cccc(CNC(=O)CCc2nc(-c3ccc(C)cc3)no2)c1 -36%
Cc1cc(OCCn2cc(C(=O)c3ccco3)c3ccccc32)ccc1Cl -26.4%
COc1ccccc1Oc1nc2c(C)cccn2c(=O)c1/C=C(\C#N)c1nc2ccccc2[nH]1 -9.81% [at 11.5 µM]
Cc1nn(CC(=O)NCc2cccc(F)c2)c(=O)c2c(C)n(-c3ccc(Cl)cc3)nc12 -20.4%
COc1ccc(-n2cc(C(=O)NCc3ccc(Cl)cc3)c3ccccc3c2=O)cc1 -2.29%
COc1ccc2nc(N(Cc3cccnc3)C(=O)c3ccco3)sc2c1 9.73%
Cc1ccc2c(c1)c1c(c(=O)n(-c3ccccc3)c(=O)n1CC(=O)NCCC1=CCCCC1)n2C -6.49%
CC1CN(C(=O)CCC(=O)NCc2cccs2)c2cc(Cl)ccc2O1 (stereo unspecified) -28.8%
Cc1ccc(CCNC(=O)c2cc3sccc3n2Cc2ccc(Cl)cc2)cc1 -21.5%
CC(C)(C)NCC(O)COc1ccc(NC(=O)NC2CCCCC2)cc1 (stereo unspecified) 10.5%
COc1ccccc1N1CCN(S(=O)(=O)c2cc(-c3cc(C)no3)ccc2C)CC1 -6.82%
O=C(c1ccc2c(c1)OCCO2)N(Cc1cccnc1)c1nc2ccc(Cl)cc2s1 13.8%
Cc1ccc(-c2nnn(CC(=O)N(CC(=O)NCCC(C)C)c3ccc(F)cc3)n2)cc1 -8.68%
Cc1ccc(C(C)C)c(OCC(=O)Nc2nc3c(s2)CCCC3)c1 -23.1%
CCN(CC)C(=O)c1cccc(C)c1 -1.68%
CCCCCOC(=O)c1ccc(Nc2nc(C(=O)OCC)nc3ccccc23)cc1 -10.7%
O=C(NCCc1ccc(F)cc1)C(=O)NCC(c1ccc2c(c1)OCO2)N1CCOCC1 (stereo unspecified) -0.625%
Cc1ccc2nc(-c3c[nH]c4ccccc34)c(Nc3ccccc3)n2c1 56.5%
Cc1coc2c1c(C)cc1oc(=O)c(CC(=O)NCc3ccc(Cl)cc3)c(C)c12 -0.252%
COc1cc(C2NC(=O)N(C)C3=C2C(=O)N(c2ccccc2)C3)ccc1O (stereo unspecified) 1.85%
CCC(C)NC(=O)c1sc2nc(C)c(C(=O)Nc3ccc(C)cc3C)c(-c3ccc(Br)cc3)c2c1N (stereo unspecified) -14.4%
Cc1ccc2[nH]c(=O)c3cc(C(=O)N4CCN(c5ccccc5F)CC4)sc3c2c1 -3.61%
O=C(CSc1nc(-c2ccccc2)cc(=O)[nH]1)Nc1ccccc1F -6.46%
COc1ccc(-c2cnc(NCc3ccc(C)cc3)n2C)cc1 -11.5%
CC1=C(C(=O)Nc2ccc(C)c(C)c2)C2(CCCCCC2)OC1=O -13%
COc1ccc(CCNC(=O)CSc2nc3ccccc3nc2Cc2ccc(C)cc2)cc1OC 1.43%
COc1ccccc1CNC(=O)c1nn(-c2ccc(C)cc2)c(=O)c2c1c1ccccc1n2C -1.1%
Cc1cccc(CSc2ncc(Cl)c(C(=O)Nc3sc4c(c3C#N)CCCC4)n2)c1 -4.37%
CCN(CC)c1nc2c(S(=O)(=O)c3ccc(C)cc3)nnn2c2ccsc12 -1.47%
COc1ccccc1NC(=O)CSc1oc(-c2cccs2)nc1S(=O)(=O)c1ccc(C)cc1 -25.2%
OC[C@H]1O[C@@H](O[C@H]2[C@@H](O)[C@@](O)(CO)O[C@@H]2CO)[C@H](O)[C@@H](O)[C@@H]1O -12.6%
O=C(Nc1nnc(S(=O)(=O)N2CCCC2)s1)c1ccccc1Cl -1.67%
CCn1ccc2cc(S(=O)(=O)N3CCC(C(=O)NCc4ccc(OC(C)C)cc4)CC3)ccc21 0%
COc1ccc(-c2nc3ccc(C(=O)NCc4ccccc4)cc3nc2-c2ccc(OC)cc2)cc1 2.19%
Cc1ccccc1NC(=O)c1ccccc1NC(=O)c1ccccc1F 7.88%
CCCSc1nnc2c(n1)OC(CC)N(C(C)=O)c1ccccc1-2 (stereo unspecified) -15.7% [at 11.5 µM]
O=C(CN1C(=O)COc2ccc(S(=O)(=O)N3CCCCC3)cc21)NCCc1ccc(Cl)cc1 2.36%
COC(=O)COc1ccc(Oc2nc(NC(C)(C)C)nc(N3CCOCC3)n2)nn1 -5.11%
CCOc1ccccc1CNC(=O)Cn1nc(C)c2nn(-c3ccc(Cl)cc3)c(C)c2c1=O -25.4%
COc1ccc(N2CCN(S(=O)(=O)c3c(C)nc4sc(C)cn4c3=O)CC2)cc1 3.62%
CC1=C(c2ccc(C)c(C)c2)S(=O)(=O)N(Cc2ccc(C(=O)NCc3ccc(C)cc3)cc2)C1=O -4.46%
COc1ccc(Cc2nc3c4cnn(-c5ccccc5Br)c4ncn3n2)cc1 -0.88%
Cc1cccc(OCC(=O)NCc2ccc3c(c2)CCN3C(=O)c2ccccc2)c1 -14.6%
COc1ccc(/C=C/C(=O)Nc2ccc(Cl)c(Cl)c2)cc1OC 14.6%
CCOc1ccc(NC(=O)c2cc(CN3CCCC3)on2)cc1 1.69%
Cc1c(C(=O)NCc2ccc(F)cc2)sc2nc3n(c(=O)c12)CCC3 1.96%
